# Results: PubChem BioAssay AID1347417 (National Center for Advancing Translational Sciences (NCATS), 2020)
# Where “and” joins values, the source holds several entries; their conditions need not be identical. Equal values may be shown once. Screen size: about 120,000 compounds; about 5,300 (4.4%) were called active. This list was built around the results that the source calls inconclusive (neither active nor inactive); the mix of calls is not that of the screen. Calls follow the shape of the dose curve; as a rule, active = well fitted inhibition curve with a large enough effect; inconclusive = small, poorly fitted or top-dose-only effect; inactive = no such curve, though single readings can be large or run the other way. Potencies of inconclusive entries are doubtful fits and often do not repeat.
# Test: qHTS Primary assay for Inhibitors of Plasmodium falciparum Dd2 growth in vitro; also: nearly all actives have a fitted effect of over 65% in size;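 as to activity, negative = inhibition: plate controls were DMSO vehicle for no effect and reference drug for full effect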
# Settings: P. falciparum Dd2 growth, SYBR Green, 72 h; activity, negative = inhibition: at 28.9 µM (top of the series) unless noted; series mostly up to 28.9 µM
# Outline: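 Readout: SYBR Green fluorescence, 485 nm excitation, 535 nm emission, after ~16 h lysis at 37C. Before that, Dd2-infected red cells (2.5% hematocrit) grew 72 h with compound, 29 uM top final concentration.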
# Potency is read from the fitted curve at half-maximal effect; tags tell the direction and shape of the fitted curve.
Structure (SMILES),Potency,"activity, negative = inhibition",outcome
COc1cccc(-c2cc3c(=O)n(CCNC(=O)c4nn(C)c5ccccc45)ccn3n2)c1,"inconclusive: 1.41 µM [inhibitor, partial curve, poor fit]",–,–
COc1ccc(CNC(=O)CSc2c3c(nc4ccc(Cl)cc24)CCCC3)cc1,"inconclusive: 17.8 µM [inhibitor, single point]",–,–
O=C(O)CCC(=O)N1Cc2ccccc2CC2(CCCN(Cc3cccnc3)C2)C1 (stereo not given),–,inactive: 7.61%,–
CCOc1ccc(CC(=O)N2[C@@H]3CC[C@H]2CC(NC(=O)c2ccc(F)cc2)C3)cc1 (stereo not given in full),"inconclusive: 15.8 µM [inhibitor, partial curve, poor fit]",–,–
O=C(c1ccccc1Cl)N1CCc2nc(C3CC3)nc(-c3ccc(O)cc3)c2CC1,"inconclusive: 7.94 µM [inhibitor, partial curve]",–,–
COc1ccc(Nc2c3c(nc4nncn24)CCC3)cc1OC,–,–,inactive
COc1ccc(C2(C(=O)N3CCC(Oc4ccc(-c5noc(C)n5)cc4)C3)CC2)cc1 (stereo not given),–,–,inactive [at 5.79 µM]
O=C(NCc1cccs1)c1ccc2c(c1)OCCN(c1ccccc1)C2,"inconclusive: 7.08 µM [inhibitor, partial curve, poor fit]",–,–
CC(C)CNc1ccc2c(n1)C(C)(C(=O)N1CCC1)CN(Cc1ccccc1)C2 (stereo not given),–,–,inactive [at 44.1 µM]
CS(=O)(=O)N(C1CC1)C1CCOC2(CCN(C(=O)C3(c4ccccc4)CC3)CC2)C1 (stereo not given),"inconclusive: 0.0708 µM [inhibitor, full curve, poor fit]",–,–
COc1ccc(-c2nnc3n2CCN(C(=O)N(C)C)C3)cc1,–,inactive: 15.2% [at 44.1 µM],–
C[S+](=O)([O-])N1Cc2ccccc2CC2(CCN(CC3CCNC3)CC2)C1 (stereo not given),–,inactive: 15.9%,–
O=C(NCCC1=CCCCC1)C1CC(=O)N(c2n[nH]c3cccc(F)c23)C1 (stereo not given),–,inactive: -5.62%,–
CCn1cc(-c2cc(-c3ccccc3OC)nc3c(C)noc23)cn1,"inconclusive: 10 µM [inhibitor, single point]",–,–
CCc1nnc([C@@H]2CC(F)(F)CN2C(=O)COc2ccccc2)o1,–,inactive: 20.6%,–
Cc1cccc(NC(=O)c2oc3ccccc3c2NC(=O)Cc2coc3ccc(C(C)C)cc23)c1,"inconclusive: 6.31 µM [inhibitor, partial curve, poor fit]",–,–
CCOc1cc(=O)n2c(c1C(=O)Nc1ccc3c(c1)OCO3)CCCC2,"inconclusive: 17.8 µM [inhibitor, single point]",–,–
COc1ccc(CCNCc2ccc3c(c2)n(C)c(=O)n3C)cc1OC,–,inconclusive: -53.6% [inhibitor] [at 0.594 µM],–
CS(=O)(=O)CC[C@H](NC(=O)C1=C[C@@H](NC(=O)Nc2ccc(F)cc2F)[C@@H](O)[C@H](O)C1)C(N)=O,–,inactive: -10.3%,–
COCCN(Cc1cccs1)C(=O)CN1CC2CC(C1)[C@H]1CCCC(=O)N1C2 (stereo not given in full),–,inactive: -1.28%,–
Cc1ccccc1CN1CC[C@H](c2nc3ccc(F)cc3[nH]2)C1,"inconclusive: 2.24 µM [inhibitor, full curve, poor fit]",–,–
CC(C)(C)CN1CCCC12Cc1ccccc1CNC2=O (stereo not given),"inconclusive: 11.2 µM [inhibitor, single point]",–,–

Structure (SMILES),Potency,"activity, negative = inhibition",outcome
Cc1ccc(C(=O)N2CCCCCCNC(=O)[C@@H]3C[C@@H](c4nc(-c5cccnc5)no4)C[C@@H]32)s1,"inconclusive: 12.6 µM [inhibitor, partial curve, poor fit]",–,–
O=C(NCc1ccc2c(c1)OCO2)C1Cn2cccc2C(=O)N1Cc1cccnc1 (stereo not given),"inconclusive: 17.8 µM [inhibitor, single point]",–,–
Cc1ccc(-c2nnc([C@H]3CCN(C4CCC4)C3)o2)cc1,"inconclusive: 7.08 µM [inhibitor, single point]",–,–
CC(CCc1ccccc1)NC(=O)Cn1cccc1-c1nc(-c2ccc(F)cc2)no1 (stereo not given),"inconclusive: 7.94 µM [inhibitor, partial curve, poor fit]",–,–
O=C(c1cc(-c2ccc(F)cc2)n[nH]1)N1CCC(OCC2CC2)C1 (stereo not given),"inconclusive: 17.8 µM [inhibitor, single point]",–,–
CC(=O)Nc1ccccc1-c1nccc2c(=O)cc(N(C)C3CCOCC3)oc12,–,inactive: -6.66% [at 44.1 µM],–
CC(NC(=O)c1ccc2c(c1)sc1nc(-c3ccccc3)cn12)C12CC3CC(CC(C3)C1)C2 (stereo not given),"inconclusive: 3.98 µM [inhibitor, partial curve]",–,–
COc1cccc(N2C(=O)NC(=NC3CCCCC3)C23CCN(C(=O)c2ccccc2OC)CC3)c1,"inconclusive: 4.47 µM [inhibitor, partial curve, poor fit]",–,–
CCCCN(CC)CCCNC(=O)Cn1ncc2c3ccccc3n(Cc3ccc(F)cc3)c2c1=O,"inconclusive: 2.51 µM [inhibitor, full curve]",–,–
COc1ccc(N2C(=O)C3(CCCCC3)C2C(=O)NCCN2CCc3ccccc3C2)cc1 (stereo not given),active: 8.91 µM,–,–
O=C(c1ccc(F)c(Cl)c1)N1CCN(c2cc(C(F)(F)F)ncn2)CC1,"inconclusive: 0.794 µM [inhibitor, full curve, poor fit]",–,–
COc1ccccc1N1CCN([C@@H]2[C@H](O)[C@H](CO)O[C@@H]2CNC2CCCCC2)CC1,"inconclusive: 11.2 µM [inhibitor, single point]",–,–
O=C(c1ccc(Cl)cc1)N1CC2(CCCN2Cc2cc(F)c(F)c(F)c2)Cc2ccccc21 (stereo not given),"inconclusive: 11.2 µM [inhibitor, single point]",–,–
COc1ccc(C)cc1NC(=O)c1cc(S(=O)(=O)N2CCN(c3cccc(C)c3C)CC2)ccc1F,"inconclusive: 17.8 µM [inhibitor, single point]",–,–
CCCn1c2ccc(F)cc2c2nnc(SCCN(CC)CC)nc21,"inconclusive: 17.8 µM [inhibitor, single point]",–,–
COc1ccc(C(=O)NC2CCN(c3cc(-c4ccc(OC)cc4)[nH]n3)CC2)cc1,"inconclusive: 0.891 µM [inhibitor, partial curve]",–,–
C=CCN(C)C(=O)[C@@H](C)C1CC[C@@]2(C)Cc3sc(NCCCC)nc3[C@@H](C)[C@@H]2[C@H]1O (stereo not given in full),"inconclusive: 10 µM [inhibitor, single point]",–,–
Cc1ccccc1NC(=O)c1sc2nc3c(cc2c1N)CN(Cc1ccccc1)CC3,"inconclusive: 17.8 µM [inhibitor, single point]",–,–
C1CCC(c2nc(CCOCC3CCCC3)no2)NC1 (stereo not given),"inconclusive: 17.8 µM [inhibitor, single point]",–,–
N#Cc1cccc(NC(=O)N2CCC[C@@H](O)[C@H](NC(=O)c3ccc(OCc4ccc(F)cc4)cc3)C2)c1,active: 5.01 µM,–,–
COc1ccc(Cn2c(C(=O)O)c(CNCc3ccc(SC)cc3)c3ccc(OC)cc32)cc1,active: 7.94 µM,–,–
COCCNC(=O)CCCn1c(SCC(=O)NCc2ccc(C)cc2)nc2c(sc3ccccc32)c1=O,–,inactive: 22%,–

Structure (SMILES),Potency,"activity, negative = inhibition",outcome
Cn1ccc(Nc2nccc3c(=O)cc(-c4cn[nH]c4)oc23)n1,"inconclusive: 17.8 µM [inhibitor, single point]",–,–
CCC(C)NC(=O)c1sc2nc(C)c(C(=O)Nc3ccc(C)cc3C)c(-c3ccc(NC(C)=O)cc3)c2c1N (stereo not given),"inconclusive: 17.8 µM [inhibitor, single point]",–,–
Cc1ccc(-c2cccc(CN3CCCC(c4nc5ccc(C)cc5c(=O)[nH]4)C3)c2)c(C)c1 (stereo not given),"inconclusive: 8.91 µM [inhibitor, single point] and active: 7.94 µM",–,–
Cc1cc(C(=O)Nc2ccc(C(O)[C@H]3COCC(=O)N3Cc3ccc(F)cc3)cc2)n(C)n1 (stereo not given in full),"inconclusive: 17.8 µM [inhibitor, single point]",–,–
COc1cccc(CN2CCCN(Cc3ccncc3)C(c3ccccc3)CC(=O)NCC2)c1OC (stereo not given),"inconclusive: 2.24 µM [inhibitor, partial curve, poor fit]",–,–
Cn1nnc(-c2ccc(C(=O)N3CCCC4(CCNCC4)CC3)cc2)n1,–,inactive: -7.36%,–
O=C(c1ccsc1)N1CCC2(CC1)NCCc1c2[nH]c2ccccc12,"inconclusive: 5.62 µM [inhibitor, partial curve, poor fit]",–,–
CC(C)(C)OC(=O)N1CC(Nc2ccc(O)cc2)C1,active: 11.2 µM,–,–
COc1ccc(N2C(=O)CSC23C(=O)N(Cc2cccc(F)c2)c2ccccc23)cc1Cl (stereo not given),"inconclusive: 17.8 µM [inhibitor, single point]",–,–
O=S1(=O)NCC2(CCN(Cc3ccc(Cl)s3)C2)Oc2ncccc21 (stereo not given),–,inconclusive: -66.2% [inhibitor],–
Fc1ccc(-c2cnc([C@@H]3COCCN3Cc3ccncc3)[nH]2)cc1,–,–,inactive [at 44.1 µM]
COc1ccc(C(=O)N2CC3(COCC(=O)N(Cc4ccccc4)C3)C2)cc1,–,inactive: -24.9% [at 44.1 µM],–
CN(CC1CCOCC1)S(=O)(=O)Cc1ccccc1,–,inactive: -12.5%,–
O=C(c1ccoc1)N1CCC(Oc2ccccc2)C1 (stereo not given),–,inactive: -16.7%,–
N#Cc1cc2c(=O)n(CCc3n[nH]c4c3CCCC4)ccc2[nH]c1=O,–,inactive: -19.4%,–
COc1ccc2c(c1)c1c(c(=O)n(-c3cccc(C)c3)c(=O)n1Cc1cccc(Cl)c1)n2C,"inconclusive: 8.91 µM [inhibitor, partial curve]",–,–
COCCN1CCCC2(CCN(C(=O)COc3cccc(C)c3C)C2)C1=O (stereo not given),–,inactive: 6.85%,–
CCC1=C(C(=O)OC)C(c2cccc(C)c2)N2C(CC(=O)Nc3ccc(OC)cc3)=CSC2=N1 (stereo not given),active: 3.16 µM,–,–
Cc1ccc(CNC(=O)C2(c3ccc(NS(C)(=O)=O)cc3)CCCCC2)o1,"inconclusive: 11.2 µM [inhibitor, single point]",–,–
C[S+](=O)([O-])N1CC2(CCCCN2Cc2ccc(Cl)cc2)Cc2ccccc21 (stereo not given),–,inactive: -26.9%,–
COCc1nc(C2CCN(S(=O)(=O)c3ccc(C#N)cc3)C2)no1 (stereo not given),"inconclusive: 12.6 µM [inhibitor, partial curve, poor fit]",–,–
